# According to the RNAGym collection of RNA variant scans (doi:10.7554/elife.90254):
# Read counts are not given, so values of variants with three or more changes are uncertain.
# B1: LINE1-mini (parent)
# chain: GGCAGAGCUCAACACAGCGUGGCAAAGUGGCUGUGGCUAGACUGCC
# Variants of: B1
# Assay: self-cleavage, relative activity (ratio to wild type); higher = more cleavage; in vitro, sequencing; the parent is a self-cleaving ribozyme
row,Variant,self-cleavage
1,C13A C31A G33A,0.1
2,C13A A25U G36U,0.03
3,C13G C18G C23A U32A G40C,0.06
4,C13A A16G C37U,0.02
5,C13A A14U A16C,0.06
6,C13A G19A A39U,0.04
7,C13G A39U C42G,0.03
8,C13A G27A U32G,0.1
9,C13G A25C A39U,0
10,C13A C15U U28C C31U G44U,0.16
11,C13A A14C A25C,0.13
12,C13A C18G G21A C46U,0.07
13,C13A G17U G19U,0.1
14,C13A G29U U32A G35C A41G,0.1
15,C13A G17A G19U C46A,0.02
16,C13G A25U C37A A39G,0.11
17,C13A G17U A39C,0.14
18,C13G A14U U20A A26U U32A C37G,0.01
19,C13A A16C C45A,0.02
20,C13A A24C A39G,0.1
21,C13G A14U C15A G40A,0.21
22,C13A A14C C23A,0.81
23,C13A U20A G36A,0.02
24,C13A A25C U28G G40A U43A,0.02

row,Variant,self-cleavage
1,C13G C18A G19C G21U G22U U38C G44A,0.04
2,C13G C15U C45U,0.1
3,C13A G17U G19C U28G,0.07
4,C13G A24U G40A,0.04
5,C13A A14G G19A C23U G40U G44U,0.07
6,C13A A14C G27U,0.04
7,C13A G17A G27U,0.14
8,C13A C18G G21U U28C C42U G44U,0.03
9,C13A U20G G21C,0.06
10,C13A C23A U32A,0.06
11,C13A A24C G40U,0
12,C13G A16C G27C G30A,0.05
13,C13G A24C G27U,0.07
14,C13A C18G C23A,0.09
15,C13A A26U C37U,0.4
16,C13A A16C G35U,0.08
17,C13A A16G G44U,0.02
18,C13A G30C U32A,0.04
19,C13G A16C G27U U32A C37A,0.02
20,C13G C15A A16U A26G,0.09
21,C13A G19A C31A G36U G44C,0.1
22,C13A C15A G33C,0.01
23,C13G A24U G29A G44A,0.04
24,C13A C18G C31G G36U,0.04

row,Variant,self-cleavage
1,C13G C18U U20A G29C C31U A39G,0
2,C13A G22A C37A,0.05
3,C13G C18G G21U C23U G40C,0.01
4,C13A C15A G17U G27U G29A,0.4
5,C13A C31G A41C,0.07
6,C13G C15U C31A G35U,0.04
7,C13A C31U U32G G36U C46G,0.03
8,C13A C15G C23A U38A G40A C45G,0.01
9,C13A C15A G17C G44U,0.02
10,C13A U28G G33A,0.04
11,C13G A14U C18A A26G U34G A41U,0
12,C13A G19A G29C G40C,0.07
13,C13A A24U U32G G35A G40C,0.03
14,C13A G44U C46U,0.06
15,C13A A14U C15A U38A,0.16
16,C13A G21C U28C C45U,0.08
17,C13A G30A G44U,0.06
18,C13A G30A G44A,0.09
19,C13A C15A A41G,0.01
20,C13A A25U C46A,0.09
21,C13A C15A A24U,0.05
22,C13A C15A A26U,0.05
23,C13A A26C G36U C37G,0.06
24,C13A G36U U38G,0.03

row,Variant,self-cleavage
1,A12U U34G G35U,0.05
2,C13A G21A C23U G35A,0.05
3,C13A G29U C37A,0.18
4,C13A A14G C18U U20C C23U G35A,0.28
5,C13A G21U C31U,0.08
6,C13A G19A G35C G36A G40C,0.05
7,C13A C23A A24G,0.1
8,C13A G17U G21U C45A,0.03
9,C13A G19U A39C G40C C42A,0.01
10,C13A U20G G27A C42U C46A,0.1
11,C13A A16U C31A,0.03
12,C13G A14C G35A C37A A41U,0
13,C13A G30U U32C,0.05
14,C13A A14G C15A U20C A39U,0.03
15,C13A A14G G29C A39C,0.03
16,C13A A16U A24U,0.31
17,A12U U32G C45U,0.01
18,C13G C15U C37A,0.13
19,C13A C37U C42G,0.01
20,C13A C15G U20A G30U,0
21,C13A G29U C31A A41U,0.07
22,C13G A25U U32G U38G A41C C42A,0
23,C13A A41C C46U,0.03
24,C13A A14U A26G G36C,0.01

row,Variant,self-cleavage
1,C13G A16C C37U A41C,0.03
2,C13A A14C G21A C23G G30U G44U C45A,0.04
3,C13G C23A A41C,0.04
4,C13A U20A G22A,0.05
5,C13A A26C C31A,0.03
6,C13A G17A U20C G35U,0.13
7,C13A G17U U28G G33U,0.01
8,C13A G22A C46A,0.14
9,C13A U28A G30A U43G,0.02
10,C13G A25C G27C G29A,0.11
11,C13G A14U U28A A39C C45G,0.02
12,C13A G21U G44A,0.03
13,C13A G21U G44C,0.03
14,C13A G19A C31A,0.04
15,C13A A39G A41G,0.09
16,C13A A26U A41U G44A,0.09
17,C13A U20C G40C,0.01
18,C13A U28C C46U,0.11
19,C13A G30A A39U,0.03
20,A12U U34G G36U C46A,0.03
21,C13A U28G G36A,0.22
22,C13G A16U U20A,0.08
23,C13A G21U G22U,0.08
24,C13A G33A G35C,0.07

row,Variant,self-cleavage
1,C13G A14U G36U,0.04
2,C13A U20G A26C U28C C37A,0.04
3,C13A G33C G35C C45A,0.02
4,C13G A24U G30U A41G,0.01
5,C13A G21A G35A U43C,0.02
6,C13A C15U A24U C42G,0.12
7,C13A G22U A41C,0.1
8,C13A G44C C46A,0.51
9,C13A A14G U20A C31A U43A,0.03
10,C13A U32A C42A,0.05
11,C13G A25C C37G G44A,0.03
12,C13A C18U A25U A26G U28C G30U C37U A39U,0.21
13,C13A A26G G36U C42U,0.01
14,C13G A25C G40A,0.02
15,C13A A25U G33U G44A,0
16,C13A U20A G22C U38C C42A,0.01
17,C13G C15U G36C,0.03
18,C13A C37A C46U,0
19,C13A G30U C31U G33A C37U,0.09
20,C13A A26C G30U,0.01
21,C13G A16G A39U G44U,0.01
22,C13A G21C C46G,0.03
23,C13G C31G C45G,0.04
24,C13A A39C G40A C42A,0.07

row,Variant,self-cleavage
1,C13G C18A U32G G40A C46A,0
2,C13G C15A C23A G30C C31G,0.05
3,C13A C15A C23U,0.7
4,C13G A14G G29A U32C G44U C45U,0.02
5,C13G C23A C31U U34A C46U,0.04
6,C13A C15A U20G,0.02
7,C13A U32G C46G,0.22
8,C13A G19U G27C,0.01
9,C13G A16C G17A G27C U28C G36U C46U,0.05
10,C13G C15A G21A G27C U38A G44C,0.06
11,C13A U34C G40U,0.01
12,C13A C23G A25U G35U,0.25
13,C13A U38G G44U C45U,0.01
14,C13A G17C G35C,0.24
15,C13A G19U U28C,0.09
16,C13A A25G G36U,0.09
17,C13A A25G G36A,0.03
18,C13A G21U G22U G29U A41C,0.03
19,C13A G19U C37A,0.02
20,C13A C15A G30C U38C A41C,0.04
21,C13A U28A G36A,0.2
22,C13A C31U G40C G44C C45U,0.01
23,C13A G29U U32C,0.04
